Laboratory results published in PubChem BioAssay AID743279 (National Center for Advancing Translational Sciences (NCATS), 2014).
The campaign covered roughly 360,000 compounds. About 17,000 (4.7%) were called active. This list was built around the results that the source calls inconclusive (neither active nor inactive); the mix of calls is not that of the screen. No stated cut-off is given here; in the data, active means activity change below about -50%; inconclusive means mostly about -30% to -49%; inactive means weaker than that.

Experiment: qHTS for Inhibitors of Inflammasome Signaling: IL-1-beta AlphaLISA Primary Screen
Details: THP-1 LPS/ATP IL-1B secretion, 16 h; at 57.5 µM, active compounds read low
Outline: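 THP-1 cells pretreated 1 hr with compounds (up to 57.5 uM final), then stimulated with LPS (250 ng/mL final) plus ATP (1.25 mM final); secreted IL-1B measured by AlphaLISA after 16 hr, decreased signal indicating inhibition.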
On the % scale 0 is the no-effect control and ±100 the full control effect.

Row | SMILES | activity change
1 | CC1CCCN(CC(=O)NNC(=O)COc2ccc(Br)cc2)C1 (stereo unspecified) | inconclusive: -31.3%
2 | CN1C[C@@H]2C[C@@H](c3cccn3-c3nccs3)N3CCC[C@@]23C1=O | inactive: -17.9%
3 | N#Cc1nc(COc2ccccc2F)oc1N1CCCCCC1 | inconclusive: -41.1%
4 | COc1cc(N2C(=O)C=CC2=O)c(OC)cc1Cl | inconclusive: -33.7%
5 | CCCC(=O)N(CCc1ccc(OC)cc1)Cc1nc2ccccc2c(=O)[nH]1 | inconclusive: -33.9%
6 | Cc1ccc(NC(=O)COc2ccccc2)cc1Cl | active: -50.8%
7 | NC(=O)NC(=O)CSc1nc(-c2ccccc2)c(-c2ccccc2)n1CC1CCCO1 (stereo unspecified) | inconclusive: -40.4%
8 | COc1cc(C(=O)NCC(c2ccco2)N2CCCC2)ccc1OCc1ccc(Cl)cc1Cl (stereo unspecified) | inconclusive: -31.6%
9 | O=C(NCC1CCCC(CNC(=O)N2CCc3ccccc32)C1)N1CCc2ccccc21 (stereo unspecified) | inconclusive: -34.3%
10 | OC[C@@H]1[C@@H](c2ccc(Cl)cc2)C(c2cccc(Cl)c2)=NN1c1ccccc1 | inconclusive: -30.4%
11 | O=C(NC1CCCCC1)C(c1ccc2ncccc2c1)N(Cc1cccs1)C(=O)c1cccs1 (stereo unspecified) | inconclusive: -33.5%
12 | Cc1cc(SCC(=O)Nc2cccc(S(=O)(=O)NC3=NCCCCC3)c2)c(C)cc1Br | active: -63.8%
13 | CCCCn1c(=O)[nH]c2nc3cc(N)ccc3nc2c1=O | inconclusive: -37.2%
14 | Cc1cccnc1C(NC(=O)C1CCN(Cc2ccc(Cl)cc2)CC1)c1ccc(F)cc1 (stereo unspecified) | inconclusive: -47.1%
15 | CC(C)C(=O)N1CCN(c2ccc(NC(=O)c3ccc([N+](=O)[O-])o3)cc2Cl)CC1 | active: -105%
16 | C=CCSc1nnc(NC(=O)c2ccc3c(c2)OCCO3)s1 | inactive: -2.75%
17 | CN(Cc1ccccc1F)C(=O)c1sccc1-c1ccccc1 | inconclusive: -40.2%
18 | O=C(NCc1ccco1)c1ccc2c(c1)N(Cc1ccccc1)CCS2 | inconclusive: -40.1%
19 | Cc1nc(N)sc1-c1csc(Nc2ncccn2)n1 | active: -81.1%

Row | SMILES | activity change
20 | CN1CCN(C2Cc3ccc(Cl)cc3Sc3ccc(F)cc32)CC1 (stereo unspecified) | active: -63.5%
21 | Cc1ccc(C(=O)N2CCCC(c3ccc(Cl)cc3)=N2)cc1 | active: -53.8%
22 | Cc1cc(C)cc(NC(=O)CCCSc2nc3ccccc3[nH]2)c1 | inconclusive: -40.9%
23 | Cn1c(=O)c2c(nc(NCCCN3CCOCC3)n2Cc2cccc(Cl)c2)n(C)c1=O | inactive: -5.72%
24 | CN(C)C(=O)/C(C#N)=C\c1cc(Br)c(Sc2ccc(Cl)cc2)o1 | active: -94.4%
25 | C[C@@H]1O[C@H](C2CCCC2)CC2=C1C(=O)OC(C)(C)O2 | inactive: 28.4%
26 | COc1ccc(C(=O)Nc2cccc(NC(=O)c3cccs3)c2)cc1 | inconclusive: -36.8%
27 | CN(C)C/C=C/C(=O)Nc1cccc(-c2c[nH]c3ncnc(Oc4ccc(NC(=O)CC(=O)Nc5ccc(F)cc5)cc4F)c23)c1 | active: -90.3%
28 | Cc1cc(-c2onc3ccc(Cl)cc23)ccc1O | inconclusive: -31.6%
29 | CN1CCN(S(=O)(=O)c2cccc(C(=O)Nc3ccc(Br)cc3Br)c2)CC1 | inactive: -17.3%
30 | CCOc1ccc(CCNC(=O)CCc2nnc3ccc(N4CCCCC4)nn23)cc1OCC | inactive: 1.73%
31 | O=C1CSc2cc(Cl)ccc2N1 | inactive: 27.9%
32 | Cc1cc(Sc2nnc(N)s2)c2ccccc2n1 | active: -113%
33 | O=C(NC(c1ccc(F)cc1)c1ccc2ccccc2n1)C1CCN(CCOc2ccc(Cl)cc2Cl)CC1 (stereo unspecified) | inconclusive: -49.7%
34 | Cc1ccc(CS(=O)(=O)c2nc3c(c(N(C)C)n2)CCCC3)cc1 | active: -78.6%
35 | CC1(C)CC(=O)C=C(Nc2ccc(Cl)c(Br)c2)C1 | inconclusive: -37.1%
36 | Cc1sc2nc(CN3CCCC3)nc(N3CCN(S(=O)(=O)c4ccccc4)CC3)c2c1C | inconclusive: -32.1%
37 | COc1ccc(NC(=O)C2CCOC2=O)cc1 (stereo unspecified) | inactive: -17.8%
38 | CN(C)c1ccc(N=Nc2ccccc2C(=O)OCC(=O)NCC2CCCCC2)cc1 | inconclusive: -30.1%

Row | SMILES | activity change
39 | CCn1c(CSc2nc3ccccc3n2C)nc2ccccc21 | inconclusive: -49%
40 | CCN1/C(=C/c2ccc3cc(C)ccc3[n+]2CC)Sc2cc(C)c(C)cc21 | active: -98%
41 | COc1ccc(OC)c(CN2CCN(C(=O)c3ccc(S(=O)(=O)Nc4ccccc4F)cc3)CC2)c1 | inactive: 24.9%
42 | Cc1ccc(-c2nc(SCC(=O)NCC3CCCO3)c(-c3ccc(Cl)cc3)[nH]2)cc1 (stereo unspecified) | inconclusive: -39.9%
43 | Cc1ccc2ccccc2c1CSc1nc(N)nc2c1ncn2CC(C)C | inconclusive: -44%
44 | COc1ccc(NC(=O)CN(C)C(=O)c2cc(CN3C(=O)c4ccccc4C3=O)ccc2OC)cc1 | inactive: -6.41%
45 | COc1ccc(-c2cc(C(=O)N3CCCC(C(F)(F)F)C3)c3ccccc3n2)cc1OC (stereo unspecified) | inconclusive: -31.9%
46 | COCCNC(=O)CCCn1c(=O)c2cc(OC)c(OC)cc2n(CC(=O)c2cccc(OC)c2)c1=O | inconclusive: -40.5%
47 | O=C(N/N=C/c1ccco1)C1CC1(c1ccccc1)c1ccccc1 (stereo unspecified) | inconclusive: -45.8%
48 | COc1cc(CN(CC2CCCO2)C(=O)c2ccco2)cc(OC)c1OC (stereo unspecified) | inactive: -18.7%
49 | Cn1c(SCC(=O)N/N=C/c2ccc([N+](=O)[O-])s2)nnc1-c1ccc(Cl)cc1 | inconclusive: -46.8%
50 | Cc1cccc(NC(=S)N2CCN(c3cc(C)ccc3C)CC2)c1 | inactive: 8.63%
51 | Cc1ccc(NC(=O)CSc2nnc(COc3ccc(C#N)cc3)n2-c2ccccc2)cc1C | inactive: -2.82%
52 | CCCSc1nc2sc3c(c2c(=O)n1-c1ccc(OC)cc1)CCN(C)C3 | inconclusive: -46.3%
53 | CCn1nnnc1NCc1ccc(SC)cc1 | active: -77.5%
54 | CC1CCCCN1Cc1c(O)ccc2c(=O)c(-c3ccc(Br)cc3)coc12 (stereo unspecified) | inconclusive: -36.6%
55 | CC(C)CCC(O)(c1ccccc1)C(CN1CCOCC1)c1ccccc1 (stereo unspecified) | inconclusive: -46.2%
56 | CC(C)Cn1c(N)c(S(=O)(=O)c2cccs2)c2nc3ccccc3nc21 | inconclusive: -43.5%
